Measurements reported in the supplement of paper PMC11417369.
The list shows a part of the results.

What follows are sequences tested on PfSIP2 AP2 domain 1 (GST-tagged) (assay: gcPBM binding intensity (ln(normalized median fluorescence intensity)); higher = stronger DNA binding).
In short: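 GST-tagged P. falciparum DNA-binding domains produced in E. coli were incubated for 1 h on an Agilent 4 × 180k array of primer-extended double-stranded 36-bp intergenic genomic probes with negative controls. Binding intensity is the highest Masliner-normalised natural-log median intensity across replicate spots of either probe orientation, with bound protein detected by Alexa488 anti-GST antibody at 488 nm.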
For “ATTGTATATAAATGAGTGCATACTATGTTGTTCTTA [GTGCAC_site9678]”, the “gcPBM binding intensity (ln)” value was 8.72.
“ATTATCTCCGCCATGTGGACACATATAAGACATTTT [XGTACX_site2889]” was tested, and the “gcPBM binding intensity (ln)” value was 7.28.
For “AAAAAAAAAAAAAACACACACACAAAAAAAAATATA [CACACA_site1104]”, the “gcPBM binding intensity (ln)” value was 7.41.
For “AGGCTACGAATAGAATGTACCCGAAATAAGGAATAT [XGTACX_site6012]”, the “gcPBM binding intensity (ln)” value was 7.03.
“TATGTAAATCTCTTAAGAATTCGCTATATCTCTTTT [CACACA_negctrl_site1180]” was tested, and the “gcPBM binding intensity (ln)” value was 6.55.
With “ATATAAGCGTATACATGTACATATATATCTTTGTAA [XGTACX_site2742]” the “gcPBM binding intensity (ln)” value was 7.07.
With “AAAAAAAAATGTCATGGTACACAATTTTTTCTTTTT [XGTACX_site4505]” the “gcPBM binding intensity (ln)” value was 6.48.
For “TAAAGTAAAACAAGGTAAGGTTTTTCTTTTTCTTTT [CACACA_negctrl_site1271]”, the “gcPBM binding intensity (ln)” value was 6.32.
For AATAAATTATGAACGGTGCAGGAAAAATTGTAACAT, the “gcPBM binding intensity (ln)” value was 9.26.
For “TAGATTATTTTATTTAGTACATAAAAAAGTAAGACC [XGTACX_site7889]”, the “gcPBM binding intensity (ln)” value was 7.43.
“CAAAAAAACAAACACACACACACACCGATATATATA [CACACA_site9218]” was tested, and the “gcPBM binding intensity (ln)” value was 7.36.
For “AAACATAAGGGACACACACACATATATATATATATA [CACACA_site5920]”, the “gcPBM binding intensity (ln)” value was 9.81.
“TGAAGTGCAAAATACTGTACGTAATGTGCTTGTTAC [XGTACX_site4512]” was tested, and the “gcPBM binding intensity (ln)” value was 8.73.
With “CAATCTTTTACGAATACACACACATAAAGAAAAAAA [CACACA_site8367]” the “gcPBM binding intensity (ln)” value was 7.12.
With “TTAAATAAATAAAAATGTACATGCATATATAAATAT [XGTACX_site8908]” the “gcPBM binding intensity (ln)” value was 7.12.
“AATTTTTTATATGTCACACATTTGTTATTATTATTA [CACACA_site4197]” was tested, and the “gcPBM binding intensity (ln)” value was 6.86.
“AAAAAGAATAAATAAATATAAATAAATAAATATATA [GTGCAC_negctrl_site336]” was tested, and the “gcPBM binding intensity (ln)” value was 6.68.
For “ACATATAGAAGTATCTATAAACAGTGATAGCATTTT [CACACA_negctrl_site1122]”, the “gcPBM binding intensity (ln)” value was 6.81.
With “AAAACACAAAAAAAATGTACACATATATATATATAT [XGTACX_site8509]” the “gcPBM binding intensity (ln)” value was 8.78.
For “TAACTATATTTTTACTGTACAAAAAAATTAAATAAT [XGTACX_site1765]”, the “gcPBM binding intensity (ln)” value was 7.13.
For “ATATTAATTCTACATTGTACACATGAAAAAATATAA [XGTACX_site8759]”, the “gcPBM binding intensity (ln)” value was 7.22.
With “CATTATGTCGTAAATACACACATACAGATACATACA [CACACA_site4880]” the “gcPBM binding intensity (ln)” value was 7.15.
“AAATTAAATAAATTTACACACTAAAAATTACAGATA [CACACA_site4722]” was tested, and the “gcPBM binding intensity (ln)” value was 6.83.
“GTTATATATAATAATTGTACAAAATTAAATATAACT [XGTACX_site4189]” was tested, and the “gcPBM binding intensity (ln)” value was 6.99.
With “TTTTTATTTGGTTGTGTACACATATATATATATATA [CACACA_site5844]” the “gcPBM binding intensity (ln)” value was 9.3.
In the case of “AAAAAACACCCACATACACACAAAAATGTTATAAAT [CACACA_site81]”, the “gcPBM binding intensity (ln)” value is reported as 6.87.
With “CTAAGAAAAAATAAAGCACACAAATATTTTAAAAAC [CACACA_site9094]” the “gcPBM binding intensity (ln)” value was 6.73.
In the case of “AAAAAAAAATATAACAGTACATAAACATATGAATAT [XGTACX_site7093]”, the “gcPBM binding intensity (ln)” value is reported as 6.91.
With “TTTTATAATTTCTTCTGTACATATATATGAAAATAT [XGTACX_site74]” the “gcPBM binding intensity (ln)” value was 7.16.
For “TCAACCAAAACATAAGCATGCAATATATTTTTATAC [TGCATGCA_site560]”, the “gcPBM binding intensity (ln)” value was 7.16.
For “TTATATATTTTTATGTGTACTTATATATATATATAT [XGTACX_site6211]”, the “gcPBM binding intensity (ln)” value was 9.53.
In the case of “CACAAAGACACAAACACACACACACCCACATACATA [CACACA_site452]”, the “gcPBM binding intensity (ln)” value is reported as 7.2.
In the case of “ATTTCCCTATATAGAGCATGCACTATATTCAAATGA [TGCATGCA_site531]”, the “gcPBM binding intensity (ln)” value is reported as 8.77.
For “AACAAAAACACTTTTACACACATAAGTAAAATATAT [CACACA_site1994]”, the “gcPBM binding intensity (ln)” value was 7.11.
“TACTTATTTAAAATAGTGCATGAATAGAAGATATAT [GTGCAC_site9756]” was tested, and the “gcPBM binding intensity (ln)” value was 8.46.
“ATACAAATATACTTTTGTACGAAGAAATATATATAT [XGTACX_site3912]” was tested, and the “gcPBM binding intensity (ln)” value was 8.28.
“ATACAATTTATTTTAACACACGAATGAATTGATTAT [CACACA_site4160]” was tested, and the “gcPBM binding intensity (ln)” value was 6.98.
With “GGTTCATATCTTAACACACACATACATATTATAGAT [CACACA_site7392]” the “gcPBM binding intensity (ln)” value was 7.32.
“TAAAGAAACTATTCAACACACGGTCTAATTATTACA [CACACA_site1064]” was tested, and the “gcPBM binding intensity (ln)” value was 6.74.
For “ATAAAAAAAATAAAAAGTACAAAAAAAAAAAATGGA [XGTACX_site136]”, the “gcPBM binding intensity (ln)” value was 6.99.
With “TATTCTAAAGAAATTACACACATGCAATGAAAAAAA [CACACA_site6895]” the “gcPBM binding intensity (ln)” value was 6.68.
With “AAAAATAAACGACAGTGTACTAAATATTTAATTTTC [XGTACX_site3580]” the “gcPBM binding intensity (ln)” value was 6.97.
For “CAGGGCAGGGGGAAGGGTACACATAAAAGAAAATAA [XGTACX_site172]”, the “gcPBM binding intensity (ln)” value was 8.34.
For “TATAAATATATATTTTGTACTTAATATAAATTTATA [XGTACX_site7996]”, the “gcPBM binding intensity (ln)” value was 6.96.
For “AATAATATTTAATACACACACCAGTTCTGCAAATTT [CACACA_site7712]”, the “gcPBM binding intensity (ln)” value was 6.91.
